# From the BET-seq Pho4 binding data (Le et al. 2018)
# Some of the results follow. Values were computed here from the reads of four pooled replicates and scatter widely.
# Target: T1, Pho4 (S. cerevisiae) (UniProt P07270)
# T1 sequence: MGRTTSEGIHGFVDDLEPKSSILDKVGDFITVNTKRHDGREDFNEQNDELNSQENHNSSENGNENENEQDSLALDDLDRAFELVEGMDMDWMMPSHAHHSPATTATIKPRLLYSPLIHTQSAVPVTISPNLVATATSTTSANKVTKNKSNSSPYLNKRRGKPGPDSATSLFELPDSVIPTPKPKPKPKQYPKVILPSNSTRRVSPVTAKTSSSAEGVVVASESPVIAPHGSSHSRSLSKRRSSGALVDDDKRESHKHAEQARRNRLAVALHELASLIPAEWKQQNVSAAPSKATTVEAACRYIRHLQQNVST
# Assay: relative binding free energy (BET-seq); higher = weaker binding
# Conditions: reference: library average
row,Sequence,relative binding free energy
1,TTCAACACGTGGAGAT,0.27 kcal/mol
2,GTTCGCACGTGGATTG,-0.07 kcal/mol
3,CTGGTCACGTGAGAAT,0.51 kcal/mol
4,AATATCACGTGGGATT,0.08 kcal/mol
5,GTGTGCACGTGAGGGC,0.24 kcal/mol
6,TTAGACACGTGGTATA,-0.15 kcal/mol
7,TATAGCACGTGATCTT,0.04 kcal/mol
8,CTGTACACGTGAGGGA,0.1 kcal/mol
9,CAGGGCACGTGGAAGT,-0.01 kcal/mol
10,TTTCGCACGTGGGGAT,-0.12 kcal/mol
11,TTGCACACGTGGGTGT,0 kcal/mol
12,AGTAGCACGTGGTGAA,-0.24 kcal/mol
13,GATCACACGTGAGGGT,0.25 kcal/mol
14,GAAGGCACGTGCTAGT,0.03 kcal/mol
15,CTTGGCACGTGTGGGC,-0.09 kcal/mol
16,TACTTCACGTGGGTGT,0.07 kcal/mol
17,AGGTGCACGTGTGTCA,0.04 kcal/mol
18,TGTAACACGTGGGTTA,-0.25 kcal/mol
19,CTGAGCACGTGGCGGT,-0.18 kcal/mol
20,GTAAGCACGTGTGTGT,0.06 kcal/mol
21,AGGTTCACGTGTGTGC,0.16 kcal/mol
22,GTGCTCACGTGGGGGC,0.09 kcal/mol
23,GTTGTCACGTGAGTTC,0.38 kcal/mol
24,GTGCGCACGTGGGTGG,-0.2 kcal/mol
25,GCATTCACGTGAGGTT,0.35 kcal/mol
26,GATGTCACGTGGGAAG,0.04 kcal/mol

row,Sequence,relative binding free energy
1,GTGAGCACGTGGGGTA,-0.22 kcal/mol
2,ATTTTCACGTGTAAAT,0.29 kcal/mol
3,AGGTACACGTGTCGGT,0.04 kcal/mol
4,TTTTTCACGTGAGTGC,0.42 kcal/mol
5,AAGGACACGTGTATGT,0.09 kcal/mol
6,GGTTACACGTGGGGTA,0.1 kcal/mol
7,ATTTTCACGTGCAAAT,0.34 kcal/mol
8,GAAGACACGTGGGCTG,0.01 kcal/mol
9,ACTTGCACGTGGTTTT,0.01 kcal/mol
10,TATTGCACGTGGTTTC,-0.11 kcal/mol
11,TAGATCACGTGGGTGC,-0.04 kcal/mol
12,TATTCCACGTGGGGCT,0.05 kcal/mol
13,GTTAGCACGTGAAAGT,0.2 kcal/mol
14,ACGAGCACGTGGGGCT,-0.22 kcal/mol
15,ATGTACACGTGGTAAT,-0.05 kcal/mol
16,TGGCACACGTGGGTTC,-0.03 kcal/mol
17,GGTCGCACGTGTGATG,0.03 kcal/mol
18,CAATGCACGTGTGATT,0.15 kcal/mol
19,TTCGACACGTGCGGTG,0.08 kcal/mol
20,TTTTGCACGTGTCAGA,0.01 kcal/mol
21,TCGGGCACGTGAGTGC,0.05 kcal/mol
22,TATTGCACGTGTTTAG,0.01 kcal/mol
23,CTTTTCACGTGCTTGT,0.13 kcal/mol
24,TGGAACACGTGTGTGT,0.02 kcal/mol
25,TAGGGCACGTGACAGT,-0.13 kcal/mol
26,TGGTACACGTGAGTAA,0.41 kcal/mol

row,Sequence,relative binding free energy
1,GTCGACACGTGGAGGT,0.07 kcal/mol
2,AGCATCACGTGGGGTG,0.03 kcal/mol
3,AGTGGCACGTGATGTC,-0.09 kcal/mol
4,AGGGACACGTGTTGCG,0.02 kcal/mol
5,ATGGGCACGTGGGTGA,-0.19 kcal/mol
6,ATTAACACGTGAGTTA,0.26 kcal/mol
7,GTTAACACGTGAGTAA,0.23 kcal/mol
8,GGATGCACGTGCGGCG,-0.12 kcal/mol
9,TGGATCACGTGATGTG,0.33 kcal/mol
10,TCCGGCACGTGGGGGG,-0.16 kcal/mol
11,CTTTTCACGTGGAGGG,0.16 kcal/mol
12,AAGAGCACGTGTTGAG,-0.04 kcal/mol
13,AGGATCACGTGAGGGG,0.38 kcal/mol
14,TGGGGCACGTGAAGTT,0.3 kcal/mol
15,TCTGCCACGTGGGAGG,-0.06 kcal/mol
16,GGTGTCACGTGGTCAT,0.01 kcal/mol
17,TACATCACGTGTAGGG,0.25 kcal/mol
18,GTTTCCACGTGTGAGG,0.09 kcal/mol
19,TCATGCACGTGGGTCT,-0.14 kcal/mol
20,TTGGGCACGTGGTACT,-0.21 kcal/mol
21,AGCGGCACGTGATTGT,0.12 kcal/mol
22,ATCGTCACGTGTTCTT,0.19 kcal/mol
23,TGTACCACGTGGTATG,-0.12 kcal/mol
24,GTGTGCACGTGGGTCG,-0.07 kcal/mol
25,CAGAGCACGTGCGGGG,-0.28 kcal/mol
26,TTATGCACGTGATTTA,0.13 kcal/mol

row,Sequence,relative binding free energy
1,ATTTACACGTGATTGC,0.17 kcal/mol
2,TCTTGCACGTGTGGTC,0.1 kcal/mol
3,GGTGTCACGTGAGGGA,0.27 kcal/mol
4,TTAAACACGTGTAGCG,0.19 kcal/mol
5,AGATTCACGTGTTTTT,0.21 kcal/mol
6,GATTTCACGTGATGTG,0.34 kcal/mol
7,CTGGTCACGTGTATGA,0.02 kcal/mol
8,TTATCCACGTGGGGTC,-0.17 kcal/mol
9,ATTTTCACGTGTAGAG,0.32 kcal/mol
10,TTGAGCACGTGGCCTG,-0.22 kcal/mol
11,TGTTTCACGTGAGAAT,0.55 kcal/mol
12,TTTGACACGTGGGCTA,-0.26 kcal/mol
13,TAAAGCACGTGTGGTT,-0.01 kcal/mol
14,CGCTGCACGTGTTTGG,0.04 kcal/mol
15,GAATGCACGTGTTTAA,0.08 kcal/mol
16,TTTTACACGTGCGGAT,-0.02 kcal/mol
17,GTATTCACGTGGTTGT,0.19 kcal/mol
18,TTAGTCACGTGCTGGC,-0.04 kcal/mol
19,TTTTGCACGTGGGAAT,-0.02 kcal/mol
20,ACTGGCACGTGTGGGC,-0.05 kcal/mol
21,TTTTGCACGTGGACGT,0.02 kcal/mol
22,GATAGCACGTGGGTAA,0.04 kcal/mol
23,TATTTCACGTGAGTAG,0.32 kcal/mol
24,GAGGGCACGTGGCGTT,-0.09 kcal/mol
25,GGGGCCACGTGGGTTA,-0.18 kcal/mol
26,ACTGGCACGTGGGTAG,-0.35 kcal/mol

row,Sequence,relative binding free energy
1,TAAGGCACGTGTGGGA,-0.05 kcal/mol
2,TGGAGCACGTGGGCTA,-0.12 kcal/mol
3,TGGTCCACGTGGTTAG,-0.02 kcal/mol
4,TTTATCACGTGCTATT,-0.03 kcal/mol
5,ACTGGCACGTGGGGTA,-0.22 kcal/mol
6,TTGCTCACGTGGGGTT,0.04 kcal/mol
7,AAATGCACGTGGCGTG,0.02 kcal/mol
8,AAAGGCACGTGGTCGT,-0.23 kcal/mol
9,TTGTGCACGTGATCGT,-0.03 kcal/mol
10,TGGAGCACGTGCTTGG,-0.2 kcal/mol
11,GGGCGCACGTGTAGCT,-0.02 kcal/mol
12,CTGGTCACGTGTAGAG,0.2 kcal/mol
13,TTTAACACGTGTGGCC,0.16 kcal/mol
14,ATTGTCACGTGGGGGA,-0.02 kcal/mol
15,GGGAACACGTGTTCTG,0.11 kcal/mol
16,CGAGTCACGTGAAGGG,0.39 kcal/mol
17,TTCGTCACGTGTTTCG,0.13 kcal/mol
18,ATGGGCACGTGTTCGT,-0.12 kcal/mol
19,GTTCTCACGTGAGGTG,0.39 kcal/mol
20,GTATTCACGTGTATTC,0.4 kcal/mol
21,AGTGTCACGTGTATAT,0.08 kcal/mol
22,GTAGGCACGTGCGTGC,-0.19 kcal/mol
23,CGTGGCACGTGAGTTC,0.12 kcal/mol
24,TTGATCACGTGGAGCT,0.06 kcal/mol
25,GCATTCACGTGGTTTA,0.27 kcal/mol
26,TTGGACACGTGGGGGC,-0.06 kcal/mol

row,Sequence,relative binding free energy
1,GTGGACACGTGCGGCG,-0.12 kcal/mol
2,TAAGTCACGTGTGGGT,0.12 kcal/mol
3,TATAGCACGTGGTGTG,-0.17 kcal/mol
4,TGTAACACGTGAAAGG,0.31 kcal/mol
5,CTGGTCACGTGTAAGG,0.16 kcal/mol
6,TTGAACACGTGGGTCA,-0.12 kcal/mol
7,GGTCACACGTGTGTTA,0.03 kcal/mol
8,TCAGGCACGTGATGGG,0.08 kcal/mol
9,GGATGCACGTGTCGTA,0.06 kcal/mol
10,GTACGCACGTGAGGGT,0.18 kcal/mol
11,TAGTGCACGTGTAATT,0.15 kcal/mol
12,GAGCTCACGTGTCGGG,0.5 kcal/mol
13,ACCGGCACGTGGTGGG,-0.21 kcal/mol
14,GGTAGCACGTGGGCTG,-0.27 kcal/mol
15,TGTCTCACGTGGTGGC,0.27 kcal/mol
16,GTAGTCACGTGGTGCA,-0.01 kcal/mol
17,CTATGCACGTGGGGTC,-0.2 kcal/mol
18,AAAAGCACGTGAGGAG,0.14 kcal/mol
19,TGTGCCACGTGTATTT,-0.2 kcal/mol
20,AGAAACACGTGGGCGG,-0.18 kcal/mol
21,TATGGCACGTGGTTCA,-0.05 kcal/mol
22,TCTTTCACGTGTGGAT,0.33 kcal/mol
23,TATGGCACGTGGGAGT,-0.1 kcal/mol
24,AGTGACACGTGTAATT,0.18 kcal/mol
25,ACATTCACGTGAGGTG,0.16 kcal/mol
26,CGGCTCACGTGGGGGT,0 kcal/mol

row,Sequence,relative binding free energy
1,AGTGCCACGTGATGGG,0.04 kcal/mol
2,GTTTGCACGTGAGGTC,0.29 kcal/mol
3,TTTGGCACGTGCTTAG,-0.18 kcal/mol
4,TCTTGCACGTGGAGGC,-0.07 kcal/mol
5,TGGTACACGTGGGAGC,-0.13 kcal/mol
6,TTTTACACGTGTACGC,0.31 kcal/mol
7,TGCGACACGTGTAGGA,0.17 kcal/mol
8,GTGGACACGTGCGTTT,0.06 kcal/mol
9,AAAGTCACGTGGAGGG,0.08 kcal/mol
10,ATGGACACGTGTATTA,0.03 kcal/mol
11,TCGGTCACGTGATGTT,0.2 kcal/mol
12,GTTATCACGTGTAAGT,0.29 kcal/mol
13,CAGGTCACGTGTGCGG,0.04 kcal/mol
14,GTAAGCACGTGTAGTC,0.09 kcal/mol
15,TGGTTCACGTGGTAAA,0.16 kcal/mol
16,GGTACCACGTGTGTAG,-0.08 kcal/mol
17,CCTTTCACGTGTGTGG,0.07 kcal/mol
18,TCTCTCACGTGGGGCG,0.15 kcal/mol
19,CAGGTCACGTGTGAGG,-0.04 kcal/mol
20,CGTTACACGTGAGAGG,0.4 kcal/mol
21,ATGCGCACGTGGGGGC,-0.21 kcal/mol
22,GGGGGCACGTGCTTGC,-0.17 kcal/mol
23,TTCGACACGTGGGTGT,-0.12 kcal/mol
24,TGTCTCACGTGAGGTC,0.31 kcal/mol
25,ATTAGCACGTGATCTT,0.02 kcal/mol
26,AGGGTCACGTGGTTTA,0.05 kcal/mol

row,Sequence,relative binding free energy
1,TTGTGCACGTGATTAT,-0.03 kcal/mol
2,GAGTGCACGTGTCTTT,0.19 kcal/mol
3,CGCTTCACGTGGGGCG,0.1 kcal/mol
4,GTAGTCACGTGTACTG,0.09 kcal/mol
5,GGGGACACGTGCTAGG,-0.19 kcal/mol
6,TTTTTCACGTGCTTTG,0.21 kcal/mol
7,TAGATCACGTGACGGT,0.3 kcal/mol
8,ATGTGCACGTGTTGTG,0 kcal/mol
9,CAGGTCACGTGGGAAG,0 kcal/mol
10,GGAGACACGTGTGGGA,0.04 kcal/mol
11,TGAGGCACGTGGTTCA,-0.14 kcal/mol
12,TGGAACACGTGGCGGA,0.02 kcal/mol
13,CCTATCACGTGTGGGG,0.12 kcal/mol
14,GGCTACACGTGTGGTT,0.29 kcal/mol
15,GTTTGCACGTGGATAA,0.14 kcal/mol
16,ATAGTCACGTGGGCAT,-0.08 kcal/mol
17,TTGGACACGTGGCGCT,-0.01 kcal/mol
18,ATTGTCACGTGCTATG,-0.2 kcal/mol
19,GCGGGCACGTGGGGAC,-0.16 kcal/mol
20,TGTGTCACGTGACGTG,0.18 kcal/mol
21,ATTGGCACGTGGTTAT,-0.17 kcal/mol
22,GAGTACACGTGATGAG,0.27 kcal/mol
23,ATGTGCACGTGCTGTG,0.04 kcal/mol
24,GTAATCACGTGGAGAT,0.24 kcal/mol
25,CTCGTCACGTGTATGT,0.13 kcal/mol
26,GTGTGCACGTGGAGGC,0.03 kcal/mol

row,Sequence,relative binding free energy
1,GAAAACACGTGGGGTT,-0.03 kcal/mol
2,ATTTACACGTGTGGTG,0.17 kcal/mol
3,TTGGTCACGTGTCGAG,0.16 kcal/mol
4,TTCGGCACGTGGAAGG,-0.05 kcal/mol
5,ATGAGCACGTGATATG,-0.04 kcal/mol
6,GCTGGCACGTGGTCTT,-0.19 kcal/mol
7,GGGCACACGTGAGAGT,0.23 kcal/mol
8,TGTCTCACGTGGCTAG,0.23 kcal/mol
9,GGCGGCACGTGGAGTC,0.01 kcal/mol
10,TCATTCACGTGTGCGT,0.26 kcal/mol
11,GTTTGCACGTGGGGCC,-0.05 kcal/mol
12,GTTGTCACGTGGCAGG,-0.09 kcal/mol
13,AATGTCACGTGGTAGG,-0.03 kcal/mol
14,TTCCGCACGTGTTGGG,-0.14 kcal/mol
15,TGTTGCACGTGGCAAG,-0.05 kcal/mol
16,AAGAGCACGTGGGCGG,-0.32 kcal/mol
17,GTAGTCACGTGATTGA,0.25 kcal/mol
18,TAGTCCACGTGGAGGT,0.02 kcal/mol
19,TAGTGCACGTGAGTTC,0.24 kcal/mol
20,ACGTGCACGTGGCAGT,0.04 kcal/mol
21,TTAAACACGTGGGGCG,-0.06 kcal/mol
22,AGTCTCACGTGATATG,0.32 kcal/mol
